Read counts are not given, so values of variants with three or more changes are uncertain.
B1: LINE1-full (parent)
chain: UACGUAGGUGGUUUUCCCCUGAUAGUGCUAAGGGGGCCUGGAAGUUUGGACUGGGCAGAGCUCAACACAGCGUGGCAAAGUGGCUGUGGCUAGACUGCCUCUCUGGAUUCCUCGUCACUCAGCAGGGCAUCUCUGAGAGAAAUGCC

Variants of: B1
Assay: self-cleavage, relative activity (ratio to wild type); higher = more cleavage; in vitro, sequencing; the parent is a self-cleaving ribozyme
Work on UACGUAGGUGGUUUUCCCCUGAUGGUGCUAAGGGGGCCUGGAAGUUUGGACUGGGCAGAGCUCAACACAGCGUGGCAAUGUGGCUGUGGCUAGACUGCCUCUCUGGACUCCUCGUCACUCAGCAGGGCAUCUCUGGGAGAAAUGCC [A24G A79U U108C A136G] yielded a self-cleavage of 0.
For UACGUAGGUGGUUUUCCCCUGAUGGUGCUAAGGGGGCCUGGAAGUUUGGACUGGGCAGAGCUCAACGCAGCGUGGCAAAGUGGCUGUGGCUAGACUGCCUCUCUGGAUUCCUCGUCACUCAGCGGGGCAUCUCUGAGAGAAAUGCC [A24G A67G A124G], the self-cleavage was 0.64.
UACGUAGGUGGUUUUCCCCUGAUGGUGCUAAGGGGGCCUGGAAGUUUGGACUGGGCUGAGCUCAACACAGCGUGGCAGAGUGGCUGUGGCUAGACUGCCUCUCUGGAUUCCUCGUCACUCAGCAGGGCAUCUCUGAGAGAAAUGCC [A24G A57U A78G] showed a self-cleavage of 0.3.
UACGUAGGUGGUUUUCCCCUGAUGGUGCUGAGGGGGCCUGGAAGUCUGGACUGGGCAGAGCUCAACACAGCGUGGCAAAGUGGCUGUAGCUAGACUGCCUCUCUGGAUUCCUCGUCACUCAGCAGGGCAUCUCCGAGAGAAGUGCC [A24G A30G U46C G88A U134C A142G] gave a self-cleavage of 0.
For UACGUAGGUGGUUUUCCCCUGAUGGUGCUAUGGGGGCCUGGAAGUUUGGACUGGGCAGAGCUAAACACAGCGUGGCAAAGUGGCCGUGGCUAGACUGCCUCUCUGGAUUCCUCGUCACUCAGCAGGGCAUCUCUGAGAGAAAUGCC [A24G A31U C63A U85C], the self-cleavage was 0.
For UACGUAGGUGGUUUUCCCCUGAUGGUGCUAAGGGGGCCUGGAAGUUUGGACUGGGCAGAGCUCAACACAGCGUGGCGAAGUGGCUGUGGCUAGACUGCCUCUCUGGAUUCCUCGUCACUCAGCAGGGCUUCUCUGAGAGAAAUGCC [A24G A77G A129U], the self-cleavage was 1.36.
UACGUAGGUGGUUUUCCCCUGAUGGUGCUAAGGGGGCCUGGAAGUUUGGACUGGGCAGAGCUCAGCACAGCGUGGCAAAGUGGCUGUGGCUAGACUGCCUCUCUGGACUCCUCGUCACUCAGCAGGGCAUCUCUGAGAGAAAUGCC [A24G A65G U108C] gave a self-cleavage of 0.
With UACGUAGGUGGUUUUCCCCUGAUGGUGCUAAGGGGGCCUGGAAGUUUGGACUGGGCAGGGCUCAACACAGCGUGGUAAAGUGGCUGUGGCUAGACUGCCUCUCCGGAUUCCUCGUCACUCAGCAGGGCAUCUCUGAGAGAAAUGCC [A24G A59G C76U U104C] the self-cleavage was 0.11.
UACGUAGGUGGUUUUCCCCUGAUGGUGCUAAGGGGGCCUGGAGGUUUGGACUGGGCUGAGCUCAACACAGCGUGGCAAAGUGGCUGUGGCUAGACUGCCUCUCUGGAUUCCUCGUCACUCAGCAGGGCAUCUCUGAGAGAAAUGCC [A24G A43G A57U] showed a self-cleavage of 0.56.
For UACGUAGGUGGUUUUCCCCUGAUGGUGCUAAGGGGGCCUGGAAGUUUGGACUGGGCAGAGCUCAACACAGCGUGGCAAAGUGGCUGUGGCUAGACUGCCUCUCUGGAUUUCACGUCACUCAGCAGGGCAUCUCUGAGAGAAAUGCC [A24G C110U U112A], the self-cleavage was 0.77.
UACGUAGGUGGUUUUCCCCUGAUGGUGCUAAGGGGGCCUGGAAGUUUGGACUGGGCAGAGCUCAACACAGCGUGGCAAAGUGGCUGUGGCUAGACUGCCUCUCUGGAUUCCUCGUUACUCAGCAGGGCAUCUCUGAGAGGUAUGCC [A24G C116U A140G A141U] gave a self-cleavage of 0.8.
With UACGUAGGUGGUUUUCCCCUGAUGGUGCUAAGGGGGCCUGGAGGUUUGGACUGGGCAGAGCUCAACACAGCGUGGCAAAGUGGCUGUGGCUAGACUGCCUCUCUGGAUUCCUCGUCACUCAGCAGGGCAUCUCUGUGAGAAAUGCC [A24G A43G A136U] the self-cleavage was 0.8.
In the case of UACGUAGGUGGUUUUCCCCUGAUGGUACUAAGGGGACCUGGAAGUUUGGACUGGGCAGAGCUCAACACAGCGUGGCAAAGUGGCUGUGGCUAGACUGCCUCUCUGGAUUCCUCGUCACUCAGCAGGGCAUCUCUGAGAGAAAUGCC [A24G G27A G36A], the self-cleavage is reported as 1.
UACGUAGGUGGUUUUCCCCUGAUGGUGCUAAGGGGGCCUGGAAGUUUGGGCUGGGCAGAGCUCAGCACAGCGUGGCAAAGUGGCUGUGGCUAGACUGCCUCUCUGGAUUCCUCGUCACUCAGCAGGGCAUCCCUGAGAGAAAUGCC [A24G A50G A65G U132C] gave a self-cleavage of 0.
With UACGUAGGUGGUUUUCCCCUGAUGGUGCUAAGGGGGCCUGGAAGUUUGGACUGGGCAGAGCUCAACACAGCGUGGCAAAGUGGCUGUGGCUAGACUGCCUCUCUGGAUUCCUUGUCACUCAGCAGGGCAUCUCUGAGAGAAACGCC [A24G C113U U143C] the self-cleavage was 1.42.
For UACGUAGGUGGUUUUCCCCUGAUGGUGCUAAGGGGGCCUGGAAGUUUGGACUGGGCAGAGCUAAACACAGCGUGGCAAAGUGGCUGUGGCUAGACUGCCUCUCUGGGUUCCUCGUCACUCAGCAGGGCAUCUCUGAGAGAAAUGCC [A24G C63A A107G], the self-cleavage was 0.09.
For UACGUAGGUGGUUUUCCCCUGAUGGUGCUAAGGGGGCCUGGAAGUUUGGACUGGGCAGAGCUCAACACAGCGUGGCAAAGUGGCUGUGGCUAGACUGCCUCUCUGGAUUCCUCGUCACUCAGCAGGGCAUCUCUGAGAGUAGUGCC [A24G A140U A142G], the self-cleavage was 0.99.
Work on UACGUAGGUGGUUUUCCCCUGAUGGUGCUAAGGGGGCCUGGAAGUUUGGACUGGGCGGAGCUCGACACAGCGUGGCAAAGUGGCUGUGGCUAGACUGCCUCUCUGGAUUCCUCGUCACUCAGCAGGGCAUCUCUGAGAGAAAUGCC [A24G A57G A64G] yielded a self-cleavage of 0.36.
In the case of UACGUAGGUGGUUUUCCCCUGAUGGUGCUAAGGGGGCCUGGAAGUUUGGACUGGGCGGAGCUCUACACAGCGUGGCAAAGUGGCUGUGGCUAGACUGCCUCUCUGGAUUCCUCGUCACUCAGCAGGGCAUCUCUGAGAGAAAUGCC [A24G A57G A64U], the self-cleavage is reported as 0.64.
In the case of UACGUAGGUGGUUUUCCCCUGAUGGUGCUAAGGGGGCCUGGAAGUUUGGACUGGGCAGAGCUCAACACAGCGUGGCGAAGUGGCUGUGGCUAGUCUGCCUCUCUGGAUUCCUCGUCACUCAGCAGGGCAUCUCUGAGAGAAGUGCC [A24G A77G A94U A142G], the self-cleavage is reported as 0.97.
For UACGUAGGUGGUUUUCCCCUGAUGGUGCUAAGGGGGCCUGGAAGUUUGGACUGGGCAGAGCUCAACACUGCGUGGCGAAGUGGCUGUGGCUAGACUGCCUCUCUGGAUUCCUCGACACUCAGCAGGGCAUCUCUGAGUGAGAUGCC [A24G A69U A77G U115A A138U A141G], the self-cleavage was 0.21.
With UACGUAGGUGGUUUUCCCCUGAUGGUGCUAGGGGGGCCUGGAAGUUCGGACUGGGCAGAGCUCAACACAGCGUGGCAAAGUGGUUGUGGCUAGACUGCCUCUCUGGAUUCCUCGUCACUCAGCAGGGCAUCUCUGAGAGAAAUGCC [A24G A31G U47C C84U] the self-cleavage was 0.71.
In the case of UACGUAGGUGGUUUUCCCCUGAUGGUGCUAAAGGGGCCUGGAGGUUUGGACUGGGCAGAGCUCAACACAGCGUGGCAAAGUGGCUGUGGCUAGACUGCCUCUCUGGAUUCCUCGUCACUCAGCAGGGCAUCUCUGAGAGAAAUGCC [A24G G32A A43G], the self-cleavage is reported as 1.04.
In the case of UACGUAGGUGGUUUUCCCCUGAUGGUGCUAAGGGGGCCUGGAAGUUUGGACUGGGCAGAGCUCAACACAGCGUGGCAAAGUGGCUGUGGCUAGACUGCCUCUCUGGAUUCCUCGUUACUCAGCAGGGCAUCUCUGGGAGAAAUGCC [A24G C116U A136G], the self-cleavage is reported as 1.39.
Variant UACGUAGGUGGUUUUCCCCUGAUGGUGCUAAGGGGGCCUGGAAGUUUGGACUGGGCAGAGCUCAACACAGUGUGGCAGAGUGGCUGUGGCUAGACUGCCUCUCUGGAUUCCUCGUCACUCGGCAGGGCAUCUCUGAGAGAAAUGCC [A24G C71U A78G A121G] has a self-cleavage of 0.57.
Variant UACGUAGGUGGUUUUCCCCUGAUGGUGCUAAGGGGGCCUGGAGGUUUGGACUGGGCAGAGCUCAACACAGCGUGGCAAAGUGGCUGAGGCUAGACUGCCUCUCUGGAUUCCUCGUCACUCAGCAGGGCAUCUCUGAGGGAAAUGCC [A24G A43G U87A A138G] has a self-cleavage of 0.06.
For UACGUAGGUGGUUUUCCCCUGAUGGUGCUAAGGGGGCCUGGAAGUUUGGACUGGGCAGAGCUCAACACAGCGUGGCGAGGUGGCUGUGGCUAGACUGCCUCUCUGGAUUCCUCGUCACUCAGCAGGGCAUCUCUGAGAGAAAUGCC [A24G A77G A79G], the self-cleavage was 1.62.
Work on UACGUAGGUGGUUUUCCCCUGAUGGUGCUAAGGGGGCCUGGAAGUUUGGACUGGGCAGAGCUCAACACAGCGUGGCGUAGUGGCUGUGGCUAGACUGCCUCUCUGGAUUCCUCGUCACUCAGCAGGGCAUCUCUGAGAGAAAUGCC [A24G A77G A78U] yielded a self-cleavage of 2.15.
Variant UACGUAGGUGGUUUUCCCCUGAUGGUGCUAAGGGGGCCUGGAAGUUUGGACUGGGCAGAGCUCAACACAGCGUGGCAAAGUGGCUGUGGCUAGACUGCCUCUUUGGAUUCCUCGACACUCAGCAGGGCAUCUCUGAGAGAAAUGCC [A24G C103U U115A] has a self-cleavage of 1.13.
Variant UACGUAGGUGGUUUUCCCCUGAUGGUGCUAAGGGGGCCUGGAAGUUUGGACUGGGCAGAGCUCAACACAGCGUGGCAAGGUGGCUGUGGCUAGACUGCCUCUCUGGAUCCCUCGUCACUCAGCAGGGCAUCUCUGAGAGAAAUGCC [A24G A79G U109C] has a self-cleavage of 1.27.
Work on UACGUAGGUGGUUUUCCCCUGAUGGUGCUAAGGGGGCCUGGAAGUUUGGCCUGGGCAGAGCUCAACACAGCGUGGCAAAGUGGCUGUGGCUAGACUGCCUCUCUGGAUUCCUCGUCACUCAGCUGGGCAUCUCUGAGAGAAAUGCC [A24G A50C A124U] yielded a self-cleavage of 1.47.
Work on UACGUAGGUGGUUUUCCCCUGAUGGUGCUAAGAGGGCCUGGAAGUUUGGACUGGGCAGAGCUCAACACGGCGUGGCAAAGAGGCUGUGGCUAGACUGCCUCUCUGGAUUCCUCGUCACUCAGCAGGGCAUCUCUGAGAGAAAUGCC [A24G G33A A69G U81A] yielded a self-cleavage of 0.82.
Variant UACGUAGGUGGUUUUCCCCUGAUGGUGCUAAGGGGGCCUGGAAGUUUGGGCUGGGCAGAGCUCAACACAGCGUGGCAAAGUGGCUGUGGCUAGACUGCCUCUCUGGAUUCCUCGCCACUCAGCAGGGCAUCUCUGAGAGAAAUGCC [A24G A50G U115C] has a self-cleavage of 2.63.
UACGUAGGUGGUUUUCCCCUGAUGGUGCUAAGGGGGCCUGGAAGUUUGGACUGGGCGGAGCUCAACACAGCGUGGCAAAGUGGCUGUAGCUAGGCUGCCUCUCUGGAUUCCUCGUCACUCAGCGGGGCAUCUCUGAGAGAAAUGCC [A24G A57G G88A A94G A124G] gave a self-cleavage of 0.
Work on UACGUAGGUGGUUUUCCCCUGAUGGUGCUAAGGGGGCCUGGAAGUUUGGACUGGGCGGAGCUCAACACUGCGUGGCAAAGUGGCUGUGGCUAGACUGCCUCUCUGGAUUCCUCGUCACUCAGCAGGGCAUCUCUGAGAGAAGUGCC [A24G A57G A69U A142G] yielded a self-cleavage of 0.3.
Variant UACGUAGGUGGUUUUCCCCUGAUGGUGCUAAGGGGGCCUGGAUGUUUGGACUGGGCGGAGCUCAACACAGCGUGGCAAAGUGGCUGUGGCUAGACUGCCUCUCUGGAUUCCUCGUCACUCAGCAGGGCAUCUCUGAGAGAAAUGCC [A24G A43U A57G] has a self-cleavage of 0.17.
UACGUAGGUGGUUUUCCCCUGAUGGUGCUAAGGGGGCCUGGAAGUUUGGACUGGGCAGGGCUCAACACAGCGUGGCAAAGUGGCUGUGGCUAGACUGCCUCUCUGGAUUCCUCGUCUCUCAGCAGGGCAUCUCUGAGAGAAAUGCC [A24G A59G A117U] gave a self-cleavage of 0.13.
UACGUAGGUGGUUUUCCCCUGAUGGUGCUAAGGUGGCCUGGAAGUUUGGACUGGGCAGAGCUCGACACAGCGUGGCAAAGUGGCUGUGGCUAGACUGCCUCUCUGGAUUCCUCGUCACUCAGCAGGGCAUCUCUGAGAGAAAUGCC [A24G G34U A64G] gave a self-cleavage of 0.3.
With UACGUAGGUGGUUUUCCCCUGAUGGUACUAAGGGGGCUUGGAAGUUUGGACUGGGCAGAGCUCAACACAGCGUGGCAAAGUGGCUGUGGCUAGACUGCCUCUCUGGAUUCCUCGUCACUCAGCAGCGCAUCUCUGAGAGAAAUGCC [A24G G27A C38U G126C] the self-cleavage was 1.06.
